In patent US20040138247A1 (priority 1999, published 2004):
Like-named read-outs stand apart in the source and are kept apart here.

Assays:
[1] = for AUC(l) / AUC(tf) / Cmax: Mean (% CV), N=30; for Relative Bioavailability, AUC(l) / Relative Bioavailability, Cmax: log-transformed
clinical = conditions: human, plasma, po, 7.5 mg, AUC(tf), oral single dose 7.5 mg tablet, Mean (% CV), N=18
[2] = Treatment A: one 5 mg tablet after 10-hour fast
[3] = Treatment B/Treatment A (syrup fasted vs tablet fasted)
[4] = Treatment B: 10 mL syrup (0.5 mg/mL) after 10-hour fast
[5] = Treatment C/Treatment B (syrup fed vs syrup fasted)
[6] = Treatment C: 10 mL syrup (0.5 mg/mL) after high-fat high-caloric breakfast

Compound | AUC(l) [1, 2] | AUC(tf) [1, 2] | Cmax [1, 2] | Relative Bioavailability, AUC(l) [1, 3] | Relative Bioavailability, Cmax [1, 3] | AUC(l) [1, 4] | AUC(tf) [1, 4] | Cmax [1, 4] | Relative Bioavailability, AUC(l) [1, 5] | Relative Bioavailability, Cmax [1, 5] | AUC(l) [1, 6] | AUC(tf) [1, 6] | Cmax [1, 6] | AUC (clinical; FASTED) | AUC (clinical; FED)
Oc1cnc2c(c1)CCc1cc(Cl)ccc1C2=C1CCNCC1 [3-OH desloratadine] | 29.0 (24) ng · hr/mL | 27.0 (25) ng · hr/mL | 1.06 (34) ng/mL | 94.9% | 96.5% | 27.8 (28) ng · hr/mL | 26.0 (28) ng · hr/mL | 1.03 (38) ng/mL | 101% | 87.2% | 28.3 (31) ng · hr/mL | 25.8 (31) ng · hr/mL | 0.91 (38) ng/mL | – | –
Clc1ccc2c(c1)CCc1cccnc1C2=C1CCNCC1 [desloratadine] | – | – | – | – | – | – | – | – | – | – | – | – | – | 77.5 ng·h/mL | 73.8 ng·h/mL
